# Measured values from patent publication US12150929B2, “Compositions and methods for the treatment of depression” (Janssen Pharmaceuticals, Inc., priority 2021, dated 2024).
# How the values were obtained:
# Assay type in all cases: in vivo, human
# [1] = tested on: subjects with MDD who have had an inadequate response to SSRI/SNRI treatment; assay: ASEX sexual functioning, Example 1
# From the text: As used herein, the term “decrease in sexual functioning” refers to reducing or lessening of one or more components of the human sex drive, i.e., sexual functioning. In some embodiments, the sexual functioning comprises one or more of sexual drive, sexual arousal, vaginal lubrication, erection, orgasm achievement, or orgasm satisfaction. In other embodiments, the sexual functioning comprises sexual drive. In further embodiments, the sexual functioning comprises vaginal lubrication satisfaction. In further embodiments, the sexual functioning comprises orgasm achievement. In yet other embodiments, the sexual functioning comprises orgasm satisfaction. Desirably, the patient's sexual functioning is assessed at the time of initial administration of the aticaprant. Thus, the patient's sexual functioning while taking aticaprant can be compared to the patient's sexual functioning before administration of aticaprant. Sexual functioning may be assessed by using standard scales and techniques such as the Arizona Sexual Experience Scale (ASEX). The ASEX is used to investigate whether aticaprant has a further positive or negative effect on sexual function. The ASEX is 5 item rating scale administered to patients that quantifies sexual drive, sexual arousal, vaginal lubrication or penile erection, ability to reach orgasm and satisfaction. Scores range from 5 to 30, and two different versions of the scale are available (males and females).
# (§1) Standard safety assessments including physical and neurological examination, vital signs, 12-lead ECG, clinical chemistry, hematology, and urinalysis was performed. Based on observations of GI complaints in previous studies, a panel including PGI, PGII, G17 and Hp IgG was added to the clinical laboratory test panel to test for stomach mucosa status. • (vi) Suicidal ideation: C-SSRS • (vii) Exploratory: CPFQ • (viii) Central sedating effects: Karolinska Sleepiness Scale • (ix) Sexual dysfunction: ASEX E. Patient Population
# Patients had their sexual functioning measured using a standard, well accepted rating scale: ASEX. See, Table 32.
# [2] = tested on: subjects with MDD who have had an inadequate response to SSRI/SNRI treatment; assay: Treatment-emergent adverse events incl. AEs of special interest, full safety analysis set, Example 1; conditions: treatment period
# Protocol: as §1
# Analysis set for safety: The safety analysis is based on the full safety analysis set, defined as all enrolled subjects who received at least one dose of medication in the treatment period.
# An AE can be any unfavorable and unintended sign (including an abnormal finding), symptom, or disease temporally associated with the use of a medicinal (investigational or non-investigational) product, whether or not related to that medicinal (investigational or non-investigational) product. TEAEs were AEs with onset during the treatment phase that has worsened since baseline.
# [3] = tested on: subjects with MDD who have had an inadequate response to SSRI/SNRI treatment; assay: SHAPS total score (anhedonia), Example 1; conditions: fITT, 10 mg
# From the text: To assess a potential effect on anhedonia, an anhedonia scale may be used. For example, the Snaith-Hamilton Pleasure Scale (SHAPS) analysis is a validated scale for the measurement of anhedonia. The SHAPS is a subject completed scale in which subjects score whether or not they experience pleasure in performing a list of activities or experiences. The SHAPS is a self-reported 14-item instrument, developed for the assessment of hedonic capacity. Subjects score whether they experience pleasure in performing a list of activities or experiences. Subjects can rate the answers as 1-4 where 1 indicates “Definitely agree”, 2 indicates “Agree”, 3 indicates “Disagree” and 4 indicates “Definitely disagree”. The subject's item responses are summed to provide a total score ranging from 14 to 56. A higher total SHAPS score indicates higher levels of current anhedonia. Physician/clinical judgment can be used to assess anhedonia separately or in conjunction with an anhedonia scale.
# • (i) Depression: Montgomery-Åsberg Depression Rating Scale (MADRS), Clinical Global Impression-Severity (CGI-S), Symptoms of Major Depressive Disorder Scale (SMDDS), and Self-assessment of treatment experience (SATE) • (ii) Anhedonia: Snaith-Hamilton Pleasure Scale (SHAPS) • (iii) Anxiety: Structured Interview Guide for the Hamilton Anxiety scale (SIGH-A) and HAM-A6 • (iv) Effects on Cognition: The Cognitive and Physical Functioning Questionnaire (CPFQ) • (v) Safety assessments
# [4] = TEAEs in >=5% of subjects in either group, full safety analysis set, aticaprant 10 mg, N = 85
# [5] = TEAEs of special interest, full safety analysis set, aticaprant 10 mg, N = 85
# [6] = of 85 subjects, sentence names diarrhea and pruritus
structure (smiles),measurement,setting,value
"Cc1cc(C)cc(C2CCCN2Cc2ccc(Oc3ccc(C(N)=O)cc3F)cc2)c1 (stereo not shown) [aticaprant, 3-fluoro-4-4-2-(3,5-dimethylphenyl)pyrrolidin-1-yl-methylphenoxybenzamide]","ASEX score, Baseline","[1]; Baseline, n = 85",21.26
same,"ASEX score, Relative % Change","[1]; Endpoint vs Baseline, n = 85",−6.91%
same,"ASEX score, Absolute Change","[1]; Endpoint vs Baseline, n = 85, lower score indicates improvement",−1.47
same,"ASEX score, Endpoint","[1]; Endpoint, n = 85, lower score indicates improvement",19.79
same,sexual functioning (ASEX),[1]; patients receiving aticaprant,notable improvements in sexual functioning
same,mean change from treatment baseline (SD) in ASEX total score,"[1]; to week 6, lower score indicates improvement",−1.5 (4.02) points
same,"Diarrhea, %",[2]; [4],(8) %
same,"Gastrointestinal Disorders, %",[2]; [4],(14) %
same,"Headache, %",[2]; [4],(12) %
same,"Infections And Infestations, %",[2]; [4],(15) %
same,"Nasopharyngitis, %",[2]; [4],(6) %
same,"Nervous System Disorders, %",[2]; [4],(15) %
same,"Pruritus, %",[2]; [4],(6) %
same,"Skin And Subcutaneous Tissue Disorders, %",[2]; [4],(7) %
same,"Total no. Subjects with Adverse Events, %",[2]; [4],(47) %
same,"Abdominal Pain, %",[2]; [5],1-2%
same,"Diarrhea, %",[2]; [5],8.2%
same,"Dyspepsia, %",[2]; [5],1.2%
same,"Gastrointestinal Disorders, %",[2]; [5],10.6%
same,"Pruritus, %",[2]; [5],5.9%
same,"Skin And Subcutaneous Tissue Disorders, %",[2]; [5],5.9%
same,"Total no. Subjects with Adverse Events of Special Interest, %",[2]; [5],15.3%
same,patients who experienced acute cholecystitis,[2],0
same,"Subjects with TEAE leading to discontinuation of agent, %",[2]; N = 85,(1.2) %
same,"Total subjects affected by non-serious adverse events, %","[2]; full safety analysis set, 10 mg (N = 85)",(27.1%)
same,"TEAE diarrhea, % of subjects",[2]; of 85 subjects,8.2%
same,"TEAE diarrhea, subjects",[2]; of 85 subjects,7
same,"TEAE headache, % of subjects",[2]; of 85 subjects,11.8%
same,"TEAE headache, subjects",[2]; of 85 subjects,10
same,subjects experienced TEAEs of special interest,[2]; of 85 subjects,13
same,"subjects experienced TEAEs of special interest, %",[2]; of 85 subjects,15.3%
same,"TEAE of special interest pruritus, % of subjects",[2]; [6],5.9%
same,"TEAE of special interest pruritus, subjects",[2]; [6],5
same,"Subjects with drug-related TEAE, %","[2]; relationship possible, probable, very likely, N = 85",(23.5) %
same,"SHAPS Total Score: Change from Baseline, MMRM LS Mean (SE)",[3]; Treatment Week 1,−1.9 (0.54)
same,"SHAPS Total Score: Change from Baseline, MMRM LS Mean (SE)",[3]; Treatment Week 3,−3.1 (0.54)
same,"SHAPS Total Score: Change from Baseline, MMRM LS Mean (SE)",[3]; Treatment Week 4,−4.1 (0.55)
same,"SHAPS Total Score: Change from Baseline, MMRM LS Mean (SE)",[3]; Treatment Week 5,−4.1 (0.55)
same,SHAPS Total Score: Mean Change from Baseline (SD),[3]; Treatment Week 5,−4.3 (5.70)
same,"SHAPS Total Score: Change from Baseline, MMRM LS Mean (SE)",[3]; Treatment Week 6,−4.5 (0.55)
